# Assay results reported in PubChem BioAssay AID1508624 (National Center for Advancing Translational Sciences (NCATS), 2021).
# The whole screen tested about 48,000 compounds, of which about 120 (0.25%) were called active. Another 4% or so got no clear call; they are omitted. Calls follow the shape of the dose curve; as a rule, active = well fitted activation curve with a large enough effect; inconclusive = small, poorly fitted or top-dose-only effect, or another doubt; inactive = no such curve, though single readings can be large or run the other way. This is one part of the list.
# Test: Primary qHTS for Identification of Small Molecule Activators of Huntingtin-Antisense Promoter Activity; also: nearly all actives have a fitted effect of over 55% in size
# Settings: HEK293 HTT-AS promoter firefly luciferase reporter (activity 0% = vehicle and -100% = no light), 24 h; series mostly up to 57.5 µM; activity change, positive = activation: at the top concentration
# How it was run: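 Luminescence was read after Dual-Glo reagent and a 10 min room-temperature incubation. Values were normalized to vehicle (0% activity) and zero RLU (-100% activity). Reporter HEK293 cells had been exposed to compounds (up to 57.5 uM final) for 24 h.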
row,Structure (SMILES),"activity change, positive = activation"
1,COc1cc(NC(=O)C2CCN(S(=O)(=O)c3ccc4c(c3)oc(=O)n4C)CC2)cc(OC)c1,inactive: -18.5%
2,Cc1cn2c(=O)cc(COc3ccccc3NC(=O)c3ccc(C(C)(C)C)cc3)nc2s1,inactive: 12.6%
3,Cc1cccc(CNC(=O)c2oc3c(c2C)-c2nn(Cc4cccc(Cl)c4)cc2CC3)c1,inactive: -21.4%
4,CCOc1ccc(CN2C(=O)c3ccccc3Sc3ccc(C(=O)NC)cc32)cc1,inactive: -29.3%
5,COC(=O)c1ccc2c(c1)N(CC(=O)Nc1cccc(Cl)c1C)C(=O)c1ccccc1S2,inactive: -6.56%
6,CC(C)NC(=O)Cn1c(=O)nc(-c2ccccc2F)c2cc(Cl)ccc21,inactive: -9.36%
7,CC(C)c1cnc2c(c1SCc1cccc(F)c1)c(=O)n(C)c(=O)n2C,inactive: -22.3%
8,Cc1ccc(-c2nc3nc(C)cc(C)n3c2Nc2ccc3c(c2)OCCO3)cc1,inactive: 18.1%
9,CC(=O)N1CCc2cc(Br)cc(S(=O)(=O)N3CCC(C)CC3)c21,inactive: -18.6%
10,CCOc1ccc(NC(=O)Cn2c(=O)n(Cc3nc(-c4ccccc4)no3)c(=O)c3cc4c(cc32)OCO4)cc1,inactive: -14.4%
11,CC(=O)c1ccc(NC(=O)c2nc(-c3ccccc3)n(-c3ccc(Cl)cc3)n2)cc1,inactive: -24.5%
12,CCOC(=O)c1cc2c(=O)n3ccccc3nc2n(CCOC)c1=NC(=O)C(C)(C)Oc1ccc(Cl)cc1,inactive: -20.6%
13,Cc1nc2nc(NC(=O)C(C)(C)C)[nH]n2c(=O)c1Cc1ccccc1,inactive: 12%
14,Cc1ccc(Cn2ccn(CC(=O)Nc3c(C)cc(C)cc3C)c(=O)c2=O)cc1,inactive: -15.9%
15,O=c1[nH]c(=O)n([C@H]2C[C@H](O)[C@@H](CO)O2)cc1C(F)(F)F,inactive: -24.5%
16,CC(C)(C)OC(=O)N1CCC(c2c(C(=O)N3CCN(C(=O)c4ccco4)CC3)cnn2-c2cccc(Cl)c2)CC1,inactive: -27.8%
17,CC(=O)c1ccc(NC(=O)c2nc(-c3ccc(Cl)cc3)n3c2CCCCC3)cc1,inactive: -19.5%
18,COc1cccc(OCC(=O)NC2CC(=O)N(c3cccc(OC)c3)C2)c1 (configuration not stated),inactive: 3.91%
19,COC(=O)c1cc(NC(=O)CC2C(=O)OCCN2Cc2ccccc2)cc(C(=O)OC)c1 (configuration not stated),inactive: -6.18%
20,Cc1ccccc1CSc1nc2c(sc3ccccc32)c(=O)n1CCCC(=O)NCCCOC(C)C,inactive: -1.13%
21,CS(=O)(=O)CC[C@@H](C(=O)NCCc1ccccc1)N1Cc2ccccc2C1=O,inactive: -4.47%
22,Cc1cc(C)c2c(=O)cc(C(=O)Nc3sc4c(c3C(=O)NCc3ccco3)CCCC4)oc2c1,inactive: -2.08%
23,Cc1cccc(OCC(=O)N2CCC(c3nc4ccccc4o3)CC2)c1C,inactive: -13.7%
24,COc1ccc(NC(=O)Cn2c(=O)c3ccccc3n3nncc23)cc1Cl,inactive: 2.29%

row,Structure (SMILES),"activity change, positive = activation"
1,NC(=O)N1c2ccccc2CC(=O)c2ccccc21,inactive
2,CN(c1nnc(NC(=O)Nc2ccccc2C(F)(F)F)s1)C1CCCCC1,inactive: 18.7%
3,COCc1cc(C)nc2c1C(=O)NC(c1ccc(NC(C)=O)cc1)N2Cc1ccccc1 (configuration not stated),inactive: -9.94%
4,CCc1ccc(OC(=O)CSc2nnc(-c3ccc(OC)c(OC)c3)o2)cc1,inactive: -22.5%
5,NC1=NCC2c3ccccc3Cc3ccccc3N12 (configuration not stated),inactive: -2.51%
6,Cc1c2cnn(CC(=O)NC(C)C)c(=O)c2c(C)n1Cc1cccc(Cl)c1,inactive: -16.3%
7,COc1ccc(/C=C/c2nc(C#N)c(NCc3ccc(C)cc3)o2)cc1OC,inactive: -21.5%
8,O=C(O)CCC(=O)O,inactive: -1.93%
9,O=C(NCCc1ccccc1)c1ccc2c(c1)N(Cc1ccc(F)cc1Cl)C(=O)CS2,inactive: -14.4%
10,Cc1ccc(NC(=O)N2CCC3(CC2)Oc2ccccc2C(=O)N3Cc2ccc(F)cc2)cc1,inactive: 21.1%
11,CC(Oc1ccccc1)C(=O)Nc1cccc(-c2cn3cccnc3n2)c1 (configuration not stated),inactive: -0.829%
12,CCOc1nc(-c2ccccc2)ccc1-c1noc(-c2ccc(C)cc2)n1,inactive: -9.27%
13,CCOc1ccc(NC(=O)CC2C(=O)N(c3ccccc3)C(=O)N2CCc2sccc2C)cc1 (configuration not stated),inactive: 4.93%
14,O=C(Cn1cc(SCc2cccc(Cl)c2)c2ccccc21)N1CCCCC1,inactive: 7.55%
15,Cc1c(C(=O)OC2CCC(C)CC2)[nH]c2c1C(=O)CC(c1ccc(N(C)C)cc1)C2 (configuration not stated),inactive: -14.4%
16,COc1ccc(S(=O)(=O)c2c(C(=O)c3ccc(C)c(C)c3)cnc3ccc(C)cc23)cc1,inactive: -35%
17,Fc1ccc(-c2cc(-c3nc(-c4ccc(Cl)cc4)no3)[nH]n2)cc1,inactive: -6.53%
18,COc1cccc(/C=C/c2nc(C#N)c(NC3CCCCC3)o2)c1,inactive: -0.322%
19,CSc1ccc(CCNC(=O)Cn2c(C)c3cnn(-c4ccccc4)c(=O)c3c2C)cc1,inactive: -11.1%
20,COc1cccc(-n2c(=O)c3sc4ccccc4c3n(Cc3c(F)cccc3Cl)c2=O)c1,inactive: -3.42%
21,Cc1ccc(-n2nc(CO)c(C(=O)NCCC(C)C)n2)cc1C,inactive: -28.7%
22,CCc1cccc(NC(=O)CSc2nnc(-c3cc4occc4n3C)n2-c2ccccc2C)c1,inactive: -21.1%
23,O=C(NCc1ccncc1)C12C[C@H]3C[C@@H](C1)CC(c1ccc(Cl)cc1)(C3)C2,inactive: -15.8%
